Values quoted from earlier work as cited in patent US7138231B2 (priority 2000, dated 2006).

Key:
HIV-1 = settings: cited from earlier work
HIV-1 integrase = HIV-1 integrase (Human immunodeficiency virus type 1 group M subtype B, UniProt P04585); settings: cited from earlier work

Structure (SMILES): O=C(O)C(=O)CC(=O)c1cccn1Cc1ccc(F)cc1 [L-731, 988]
- inhibition of HIV-1 replication in vitro (HIV-1): inhibit
- inhibition of strand-transfer activity (HIV-1 integrase): specifically inhibit
